# Reference: the RNAGym collection of RNA variant scans (doi:10.1073/pnas.2313332121)
# This sample is rich in variants without activity.
# B1: TPR 5TU (parent)
# chain: GGAUCUUCUCGAUCUAACAAAAAAGACAAAUCUGCCACAAAGCUUGAGAGCAUCUUCGGAUGCAGAGGCGGCAGCCUUCGGUGGCGCGAUAGCGCCAACGUUCUCAACUAUGACACGCAAAACGCGUGCUCCGUUGAAUGGAGUUUAUCAUG
# Variants of: B1
# Assay: polymerase ribozyme fitness, log enrichment relative to wild type (log ratio); higher = more active; in vitro selection for triplet polymerase activity
# Outline: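 Streptavidin-bead capture of gel-excised extended constructs, followed by RT-PCR, closed a single triplicate in vitro selection round. That round began by annealing PCR-built, transcribed mutant libraries of each subunit of a heterodimeric triplet polymerase ribozyme with a biotinylated primer, the partner subunit and triplets, then incubating them frozen at −7 °C. After Illumina sequencing of inputs and outputs, genotypes needed ≥10 input reads and ≥1 read per output. Fitness is the base-2 logarithm of genotype enrichment over wild-type enrichment, using inverse-variance-weighted replicate averages.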
row,Variant,polymerase ribozyme fitness (log ratio)
1,C76G G128A,≤ -4.2
2,U78G G133C U139C G152U,≤ -4.2
3,C79G C95U A150G,≤ -4.2
4,C76A G88U G94U C132G U139C,≤ -4.2
5,U77A C85G U144G,≤ -4.2
6,U78A C93A G94U,-4.16
7,C76G C96A G140A,≤ -4.2
8,C76A C99A,-4.05
9,C75G U78G A115G,≤ -4.2
10,C75U C79G G86A,≤ -4.2
11,C75U C76U U78G C85U,≤ -4.2
12,U77G A138U,≤ -4.2
13,U78A G80A C95U C108A C125U U146A,≤ -4.2
14,U78G C93A,≤ -4.2
15,U78G C93G,≤ -4.2
16,C76A A119U U135C C149G,≤ -4.2
17,C76G G81A U90G C93U A98U A122U,≤ -4.2
18,C76G G94C,≤ -4.2
19,C75U A142C,-1.32
20,C79G U148A,≤ -4.2
21,C75G C95U,-2.19
22,C75G U78G C85G C93A,≤ -4.2
23,C75U U82C C116A,0.695
24,C76G G88C,≤ -4.2

row,Variant,polymerase ribozyme fitness (log ratio)
1,C75G U78G G83U A97U,≤ -4.2
2,C79U C85A A142C,≤ -4.2
3,C76A C131G,-3.98
4,C79G C114U,≤ -4.2
5,U77A G88U,≤ -4.2
6,U78A C85G,≤ -4.2
7,C76U C96A,0.322
8,C76U G117A,0.649
9,U77G C93U,≤ -4.2
10,C76A C87U A142G,-1.46
11,C76A G84A U134G,-2.67
12,U77A U90A G133U A142C,≤ -4.2
13,U78C C87A,≤ -4.2
14,U78G G88U,≤ -4.2
15,C76G C103G U104G U135C,≤ -4.2
16,C76U G143A,-1.28
17,U77A C79G C108U C116U G140C U144A,≤ -4.2
18,C76G C93U,≤ -4.2
19,U78C G83A G88C C93U A106U,≤ -4.2
20,C75G G80A C96G G112C,≤ -4.2
21,C75G C79G G141U,≤ -4.2
22,C75U U82G A91C C105U G141A,≤ -4.2
23,C75G U82A C85A,≤ -4.2
24,C76U G84U C125U G141U,-3.46

row,Variant,polymerase ribozyme fitness (log ratio)
1,C75U G92U,-2.38
2,C75G C118U,-3.87
3,U77G A98G C103A A121G C125A U134C G143C U144G,≤ -4.2
4,U78A G81A C93G A97U U151C,≤ -4.2
5,U78C U127C G128U A138U,≤ -4.2
6,C76A G86A U102G G140A,≤ -4.2
7,C76G C96A U104G G112C,≤ -4.2
8,C76A G81A U82A C85U U127G A147U,≤ -4.2
9,U78A U90C,≤ -4.2
10,U77C G136U C149G,-4.11
11,C79A A91C,≤ -4.2
12,C76U G83C C118U,-0.363
13,C75G C85U C87A A113G,≤ -4.2
14,C76A G83U C131A,≤ -4.2
15,C76U U77C C93A,≤ -4.2
16,U78G A107U C125U,≤ -4.2
17,C79A C87G,≤ -4.2
18,U77A G94A G140A,≤ -4.2
19,C76U C85A U111C C114A,≤ -4.2
20,C79A G80A C85G G100U U130A U145C U148G,≤ -4.2
21,C75G G84A,-3.93
22,C75G G84C,≤ -4.2
23,C76A C93A G112U,≤ -4.2
24,C76U C87U U102C,-1.82

row,Variant,polymerase ribozyme fitness (log ratio)
1,C76U C85U C96U C108A C116A,≤ -4.2
2,C75G A115G,≤ -4.2
3,U77G A89G A106C G133A,≤ -4.2
4,C76A C79U C125U G140U,≤ -4.2
5,U77G C79G C85G A91U C93G A115G A150G,≤ -4.2
6,C76G C79U C85U C132U,≤ -4.2
7,C76U C87G U101G,≤ -4.2
8,C76U G88C U104G A150G,≤ -4.2
9,C76U U82A A115U A147C,≤ -4.2
10,C76G G80C C105U,≤ -4.2
11,C76U G84A U101A,-0.872
12,C76G C87U C103U U109C A110G,≤ -4.2
13,U77C C96A A113U A150C,≤ -4.2
14,U77G C93U G100U,≤ -4.2
15,C79A G83U U135G G141C,≤ -4.2
16,C75G C76G G80C C99A A121C U134G G141A G143C,≤ -4.2
17,C76U C93U,-2.28
18,C76G C85A,≤ -4.2
19,U77C G80U A91U A142U U144C,≤ -4.2
20,C76G G83A U139A U146C U148C,≤ -4.2
21,C75U C87A,≤ -4.2
22,C79A U109C,≤ -4.2
23,C76U G94A C105U,-0.337
24,C76A G88C,≤ -4.2

row,Variant,polymerase ribozyme fitness (log ratio)
1,C75U G92U C93G,-1.13
2,C75G C76U A97U G141C,≤ -4.2
3,U77A C85U G94U U102C G143U,≤ -4.2
4,C76A G152A,-2.86
5,C76A A91G,-3.83
6,C76A A91U,≤ -4.2
7,C76G G88U A91G U135A A138C,≤ -4.2
8,C75G G88C A91U U135A G136C,≤ -4.2
9,C76U U82A C129G U151C,≤ -4.2
10,U78G C93U A98G A142C,≤ -4.2
11,C75G C123A G141C,≤ -4.2
12,C75U G83C C129A U139G,≤ -4.2
13,C76A A142G U146A,-1.52
14,C75U A91C,≤ -4.2
15,C75U A91G,-3.07
16,C76A C93G G100A,≤ -4.2
17,C75G A97U G126U U130A,≤ -4.2
18,C76A A110U U139C G143U,≤ -4.2
19,U77C G88U C93A A110G A122U,≤ -4.2
20,C75U G84U C99U A115C,-3.35
21,U78G C85G U135A A137U A150C,≤ -4.2
22,C76A C95U A142G,-1.94
23,C76G C105A G152U,≤ -4.2
24,C76A G86C C87G C108A C114U,≤ -4.2

row,Variant,polymerase ribozyme fitness (log ratio)
1,C75U A91G C99U,-3.56
2,C75U C95U C96U,-0.218
3,U77C G88U A147C U148A,≤ -4.2
4,U78G C79G G81U G92C A107U U111A A120C U135G G143C,≤ -4.2
5,C79A G83C G86U U102G A106C C114U C149A,≤ -4.2
6,C76U G94A,1.11
7,U78G C79U G94C A115C G143A,≤ -4.2
8,C76A G84A A91C A122U,≤ -4.2
9,U78A C93G G133A,≤ -4.2
10,C76G C105G U111C,≤ -4.2
11,U78G U111G A113U,≤ -4.2
12,U77C C95G C96G A97C U151C,≤ -4.2
13,C76A G84A,-0.957
14,C79A G84A,≤ -4.2
15,C75G U78G,≤ -4.2
16,C76U C85G,-0.632
17,C76U C85U,-2.03
18,C76U C85A,-2.44
19,C76U C118A,-2.21
20,C76U C105G,-3.71
21,C76U C93G C99U C114G U151C,≤ -4.2
22,C79A C87A A119U G126A G133C A142U,≤ -4.2
23,U78C U146C,0.315
24,U78A A91C C125A,≤ -4.2

row,Variant,polymerase ribozyme fitness (log ratio)
1,C79A G143A U144G,≤ -4.2
2,C76A C93G,≤ -4.2
3,C76A G86A,-2.06
4,C75U G86C A115U,-2.41
5,C79G C132A A142U,≤ -4.2
6,C76G G94U C96G U111A,≤ -4.2
7,C75G G80C C96U,≤ -4.2
8,C79U A97G,-3.02
9,C75U A91U U135C,≤ -4.2
10,C75U G81A C95U G100A,≤ -4.2
11,C79G G83U G84A C99A U127A C129U G136U,≤ -4.2
12,C76U C85G A147C,-0.612
13,U78A A122U U134A,≤ -4.2
14,C76A G128C,-3.67
15,C76G U82A,≤ -4.2
16,C76U,0.0494
17,C76G,≤ -4.2
18,C76A,-0.118
19,C76U A122U,0.0697
20,C79A G80U C85U C96G U102C U104C,≤ -4.2
21,U77G A107U U144C U145C,≤ -4.2
22,C76U U135C,-2.53
23,C76U C85U A91U,≤ -4.2
